Experimental data published in the supplement of paper PMC12217912.
The other results are listed elsewhere or left out. The full chains were built here from the parent and the listed change. Inactive controls read about 0.05.

B1: TEV protease; numbered along this chain (parent)
chain: MGESLFKGPRDYNPISSSICHLTNESDGHTTSLYGIGFGPFIITNKHLFRRNNGTLVVQSLHGVFKVKDTTTLQQHLVDGRDMIIIRMPKDFPPFPQKLKFREPQREERICLVTTNFQTKSMSSMVSDTSCTFPSGDGIFWKHWIQTKDGQCGSPLVSTRDGFIVGIHSASNFTNTNNYFTSVPKNFMELLTNQEAQQWVSGWRLNADSVLWGGHKVFMVKPEEPFQPVKEATQL

Variants of: B1
Experiment: raw area under fraction-flipped curve 0-4 h after induction (AUC4h, not background-subtracted), DNA-recorder readout of cleavage of the substrate (dimensionless); higher = more cleavage of the substrate by the protease variant
Conditions: temperature: 34 °C; time window: 0-4 h after rhamnose induction
Experimental: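 In vivo DNA recorder in E. coli TOP10(DE3) ΔrhaA at 34 °C. Each TEVp single-site mutant (parent TEVp 0) is paired with a single-site variant of the 7-mer TEVs (canonical ENLYFQ|S). The substrate sits between flexible linkers in a Bxb1-sfGFP-TEVs-SsrA fusion, so cleavage stabilises Bxb1 and speeds flipping of a recombination array, read by NGS. The value is the raw area under the fraction-flipped curve over 0-4 h after rhamnose induction (AUC4h), with ≥20 reads per time point. It is not background-subtracted; inactive controls average about 0.047.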
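Further: Bxb1 expression induced with 0.2% (w/v) L-rhamnose at OD600 near 0.5, cultures sampled hourly, flipped fraction per protease–substrate barcode pair counted by paired-end Illumina sequencing.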

Variant	area with substrate ENLYFQA	area with substrate ENLYFQC	area with substrate ENLYFQD	area with substrate ENLYFQI	area with substrate ENLYFQK	area with substrate ENLYFQL	area with substrate ENLYFQM	area with substrate ENLYFQN	area with substrate ENLYFQP	area with substrate ENLYFQQ	area with substrate ENLYFQR	area with substrate ENLYFQS	area with substrate ENLYFQT	area with substrate ENLYFQV	area with substrate ENLYFQW	area with substrate ENLYFQY	area with substrate ENLYFQG	area with substrate ENLYFQF	area with substrate ENLYFQH	area with substrate ENLYFQE
MGESLFKGPRAYNPISSSICHLTNESDGHTTSLYGIGFGPFIITNKHLFRRNNGTLVVQSLHGVFKVKDTTTLQQHLVDGRDMIIIRMPKDFPPFPQKLKFREPQREERICLVTTNFQTKSMSSMVSDTSCTFPSGDGIFWKHWIQTKDGQCGSPLVSTRDGFIVGIHSASNFTNTNNYFTSVPKNFMELLTNQEAQQWVSGWRLNADSVLWGGHKVFMVKPEEPFQPVKEATQL [D11A]	0.0899	0.0998	0.0551	0.085	0.0608	0.0599	0.0973	0.0791	0.06	0.058	0.0594	0.0971	0.0663	0.0619	0.0828	0.0653	–	–	–	–
MMESLFKGPRDYNPISSSICHLTNESDGHTTSLYGIGFGPFIITNKHLFRRNNGTLVVQSLHGVFKVKDTTTLQQHLVDGRDMIIIRMPKDFPPFPQKLKFREPQREERICLVTTNFQTKSMSSMVSDTSCTFPSGDGIFWKHWIQTKDGQCGSPLVSTRDGFIVGIHSASNFTNTNNYFTSVPKNFMELLTNQEAQQWVSGWRLNADSVLWGGHKVFMVKPEEPFQPVKEATQL [G2M]	0.122	0.159	–	–	–	–	–	–	–	–	0.0856	0.128	0.0847	–	–	–	0.136	–	–	–
MGESLFKGPVDYNPISSSICHLTNESDGHTTSLYGIGFGPFIITNKHLFRRNNGTLVVQSLHGVFKVKDTTTLQQHLVDGRDMIIIRMPKDFPPFPQKLKFREPQREERICLVTTNFQTKSMSSMVSDTSCTFPSGDGIFWKHWIQTKDGQCGSPLVSTRDGFIVGIHSASNFTNTNNYFTSVPKNFMELLTNQEAQQWVSGWRLNADSVLWGGHKVFMVKPEEPFQPVKEATQL [R10V]	0.0633	0.0868	–	0.0614	0.0602	0.0628	0.085	0.0516	–	0.0712	0.0753	0.0778	0.0825	0.0776	0.0691	0.0469	0.088	0.0589	0.0687	–
MGESLFKGPPDYNPISSSICHLTNESDGHTTSLYGIGFGPFIITNKHLFRRNNGTLVVQSLHGVFKVKDTTTLQQHLVDGRDMIIIRMPKDFPPFPQKLKFREPQREERICLVTTNFQTKSMSSMVSDTSCTFPSGDGIFWKHWIQTKDGQCGSPLVSTRDGFIVGIHSASNFTNTNNYFTSVPKNFMELLTNQEAQQWVSGWRLNADSVLWGGHKVFMVKPEEPFQPVKEATQL [R10P]	0.0914	0.096	0.0737	0.0517	0.0673	–	0.094	0.0674	–	–	0.0486	0.0962	0.063	–	–	–	0.0915	–	–	–
MGESLFKGPCDYNPISSSICHLTNESDGHTTSLYGIGFGPFIITNKHLFRRNNGTLVVQSLHGVFKVKDTTTLQQHLVDGRDMIIIRMPKDFPPFPQKLKFREPQREERICLVTTNFQTKSMSSMVSDTSCTFPSGDGIFWKHWIQTKDGQCGSPLVSTRDGFIVGIHSASNFTNTNNYFTSVPKNFMELLTNQEAQQWVSGWRLNADSVLWGGHKVFMVKPEEPFQPVKEATQL [R10C]	0.1	0.104	–	0.0527	0.066	0.0622	0.0957	0.0735	–	–	0.0714	0.0946	0.0604	0.066	0.0594	–	0.0913	0.0611	–	–
MGESLFKGPGDYNPISSSICHLTNESDGHTTSLYGIGFGPFIITNKHLFRRNNGTLVVQSLHGVFKVKDTTTLQQHLVDGRDMIIIRMPKDFPPFPQKLKFREPQREERICLVTTNFQTKSMSSMVSDTSCTFPSGDGIFWKHWIQTKDGQCGSPLVSTRDGFIVGIHSASNFTNTNNYFTSVPKNFMELLTNQEAQQWVSGWRLNADSVLWGGHKVFMVKPEEPFQPVKEATQL [R10G]	0.101	0.125	0.0647	0.0571	–	0.0933	0.0645	0.0732	0.0589	0.0676	0.062	0.0951	–	0.0664	0.0698	0.114	0.109	0.0898	0.128	–
MGERLFKGPRDYNPISSSICHLTNESDGHTTSLYGIGFGPFIITNKHLFRRNNGTLVVQSLHGVFKVKDTTTLQQHLVDGRDMIIIRMPKDFPPFPQKLKFREPQREERICLVTTNFQTKSMSSMVSDTSCTFPSGDGIFWKHWIQTKDGQCGSPLVSTRDGFIVGIHSASNFTNTNNYFTSVPKNFMELLTNQEAQQWVSGWRLNADSVLWGGHKVFMVKPEEPFQPVKEATQL [S4R]	0.112	0.152	0.0641	–	0.0699	0.066	0.109	–	0.0213	0.082	–	0.135	0.0688	0.0705	0.0497	0.0919	–	0.0771	0.0723	0.0817
MGEGLFKGPRDYNPISSSICHLTNESDGHTTSLYGIGFGPFIITNKHLFRRNNGTLVVQSLHGVFKVKDTTTLQQHLVDGRDMIIIRMPKDFPPFPQKLKFREPQREERICLVTTNFQTKSMSSMVSDTSCTFPSGDGIFWKHWIQTKDGQCGSPLVSTRDGFIVGIHSASNFTNTNNYFTSVPKNFMELLTNQEAQQWVSGWRLNADSVLWGGHKVFMVKPEEPFQPVKEATQL [S4G]	0.113	0.148	0.079	0.0515	0.0706	0.0585	0.109	0.0849	0.0586	0.0699	0.0553	0.118	0.0701	0.074	0.0669	0.0858	0.133	0.0948	0.0823	–
MGENLFKGPRDYNPISSSICHLTNESDGHTTSLYGIGFGPFIITNKHLFRRNNGTLVVQSLHGVFKVKDTTTLQQHLVDGRDMIIIRMPKDFPPFPQKLKFREPQREERICLVTTNFQTKSMSSMVSDTSCTFPSGDGIFWKHWIQTKDGQCGSPLVSTRDGFIVGIHSASNFTNTNNYFTSVPKNFMELLTNQEAQQWVSGWRLNADSVLWGGHKVFMVKPEEPFQPVKEATQL [S4N]	0.0652	0.158	0.0831	0.059	0.0362	0.0573	0.113	0.0903	0.035	0.0528	0.0471	0.116	0.0627	0.0558	–	0.0824	0.0924	–	0.0956	0.112
